# Reference: PubChem BioAssay AID743255 (National Center for Advancing Translational Sciences (NCATS), 2014)
# Values joined by “and” are separate entries in the source; they are usually repeats but may differ in a detail not shown here. Equal values may be shown once. The whole screen tested about 390,000 compounds, of which about 910 (0.23%) were called active. Another 5% or so got no clear call; they are omitted. Calls follow the shape of the dose curve; as a rule, active = well fitted inhibition curve with a large enough effect; inconclusive = small, poorly fitted or top-dose-only effect; inactive = no such curve, though single readings can be large or run the other way. Only a part is listed here, and it is no random draw. A structure can be active in one record and inactive in another.
# Molecular target: Ubiquitin carboxyl-terminal hydrolase 1 (Homo sapiens) (UniProt O94782)
# Assay: Inhibitors of USP1/UAF1: Primary Screen; also: nearly all actives have a fitted effect of over 60% in size
# Settings: recombinant USP1/UAF1, Ub-Rhodamine cleavage fluorescence; activity change, negative = inhibition: at 57.1 µM (top of the series)
# How it was run: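 USP1/UAF1 complex (1 nM) preincubated 15 min at room temperature with compound, then Ub-Rho substrate (150 nM final) added. Kinetic fluorescence at 480/540 nm over 6 reads at 60 s intervals; 50 mM HEPES pH 7.8, 0.5 mM EDTA, 0.1 mg/ml BSA, 1 mM TCEP, 0.01% Tween-20.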
# % is scaled to controls: 0 for no effect and ±100 for the full control effect; potency is read from the fitted curve at half-maximal effect.
# UniProt O94782, sequence (O94782 whole entry, looked up): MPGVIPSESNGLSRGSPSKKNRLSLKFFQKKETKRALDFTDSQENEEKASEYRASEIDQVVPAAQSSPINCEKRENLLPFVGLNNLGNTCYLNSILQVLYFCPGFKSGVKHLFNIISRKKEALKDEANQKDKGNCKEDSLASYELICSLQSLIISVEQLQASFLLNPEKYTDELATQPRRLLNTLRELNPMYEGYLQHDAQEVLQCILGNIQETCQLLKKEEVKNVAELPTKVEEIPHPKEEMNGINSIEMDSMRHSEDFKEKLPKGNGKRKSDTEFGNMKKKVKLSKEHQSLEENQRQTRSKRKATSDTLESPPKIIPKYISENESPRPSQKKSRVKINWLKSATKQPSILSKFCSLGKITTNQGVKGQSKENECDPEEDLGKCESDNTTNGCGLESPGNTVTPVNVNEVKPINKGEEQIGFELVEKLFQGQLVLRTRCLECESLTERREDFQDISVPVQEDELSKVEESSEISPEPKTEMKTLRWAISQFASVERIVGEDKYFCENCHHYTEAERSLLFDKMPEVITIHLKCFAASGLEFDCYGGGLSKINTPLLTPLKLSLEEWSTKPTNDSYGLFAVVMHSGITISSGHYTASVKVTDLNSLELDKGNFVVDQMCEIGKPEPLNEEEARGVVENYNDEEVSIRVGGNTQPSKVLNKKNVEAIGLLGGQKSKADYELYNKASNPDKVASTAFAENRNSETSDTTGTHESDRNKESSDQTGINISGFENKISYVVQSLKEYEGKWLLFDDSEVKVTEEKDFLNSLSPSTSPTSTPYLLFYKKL
SMILES,"activity change, negative = inhibition",Potency
O=C(Cn1ncc2c([nH]c3ccccc32)c1=O)NCC1CCN(Cc2ccc(F)cc2)CC1,inactive: -31.1%,–
C[n+]1ccc(/C=C/c2c[nH]c3ccccc23)cc1,–,active: 28.2 µM
CC(=O)n1cc([C@@H]2C=C(C(=O)N3CCN(Cc4ccc5c(c4)OCO5)CC3)O[C@H](OCc3ccc(CO)cc3)C2)c2ccccc21,inactive: -7.82%,–
C=C(C)C(=O)Nc1cccc(C2=NOC3(C2)C[C@H](C(N)=O)N(C(=O)C(c2ccccc2)c2ccccc2)C3)c1 (some centres not stated),inactive: 37.1%,–
O=C1CCCC2=C1Sc1ccc(Cl)cc1N2,inactive: 318%,–
C=CC[C@H](CC(=O)N[C@H](CO)Cc1ccccc1)C(=O)N[C@H](COC(=O)[C@@H](CC=C)Cc1ccc(F)cc1)Cc1c[nH]c2ccccc12,inactive: -18.6%,–
COc1ccc(S(=O)(=O)N(C)C[C@@H]2OCc3cnnn3CCCC(=O)N([C@H](C)CO)C[C@H]2C)cc1,inactive: 2.94%,–
CC1=Nc2ccccc2/C1=C\c1nc(-c2ccc(F)cc2)oc1O,–,active: 28.2 µM
C=CC[C@@H](CC(=O)N[C@H](CO)Cc1ccccc1)C(=O)N[C@H](COC(=O)[C@H](CC=C)CC(=O)OC(C)(C)C)Cc1c[nH]c2ccccc12,inactive: -14.4%,–
Cc1ccc(Cl)cc1NC1=C/C(=N\S(=O)(=O)c2cccs2)c2ccccc2C1=O,–,active: 2.24 µM and active: 3.16 µM
CC(C)(C)OC(=O)C[C@@H]1C/C=C\C[C@@H](CC(=O)N[C@@H](CO)Cc2ccccc2)C(=O)N2CCC[C@H]2COC1=O,inactive: -23.6%,–
CCc1ccc(NC(=O)Cn2ncn3c(cc4ccccc43)c2=O)cc1,inactive: -13.5%,–
CCN1CCN(Cc2ccc(NC(=O)c3ccc(C)c(NC(=O)c4c[nH]c5cc(C(F)(F)F)ccc5c4=O)c3)cc2C(F)(F)F)CC1,inactive: -12.3%,–
COC(=O)c1cc(S(=O)(=O)NCC2CCN(Cc3cccc(F)c3)CC2)cn1C,inactive: -7.9%,–
CCOc1ccccc1CNC(=O)CN1C(=O)CSc2ccc(S(=O)(=O)N3CCOCC3)cc21,inactive: -25.3%,–
O=C1NNC(c2ccccc2)=N/C1=C\c1ccccc1Cl,–,active: 17.8 µM
C=CC[C@@H](CC(=O)N[C@H](CO)Cc1ccccc1)C(=O)N[C@@H](COC(=O)[C@H](CC=C)CC(=O)OC(C)(C)C)Cc1ccccc1,inactive: -17.7%,–
COC(C[C@H]1O[C@H]1[C@H](O)[C@H](C)OCc1ccccc1)OC,inactive: -0.472%,–
CCCc1nc2nc(C)c(NS(=O)(=O)c3ccc(F)cc3)c(=O)n2[nH]1,inactive: -17.2%,–
CNc1ccc2c3c(cccc13)C(=O)N(C)C2=O,inactive: 321%,–
C[C@H](CO)N1C[C@H](C)[C@@H](CN(C)C(=O)Nc2ccc(C(F)(F)F)cc2)Oc2c(NC(=O)c3ccncc3)cccc2C1=O,inactive: -18.2%,–
O=C(O)C1=C[C@H](c2csc3ccccc23)C[C@H](OCCCCO)O1,inactive: -14.1%,–
CCOC(=O)N(C)C[C@H]1OCc2cn(nn2)CCCC(=O)N([C@H](C)CO)C[C@@H]1C,inactive: -33.7%,–
OCC[C@@H]1C[C@H](O)[C@@H](O)[C@@]2(CCCc3ccccc3O2)O1,inactive: -25.9%,–
CCOC(=O)C1=C(C)NC(C)=C(C(=O)OCC)C1,–,inactive and active: 22.4 µM
CNc1c2c(nn1C)CCCC2,inactive: -17.5%,–

SMILES,"activity change, negative = inhibition",Potency
Cc1ccc(CNC(=O)c2cccc3c2C(=O)c2ccc(N4CCCCC4)cc2S3(=O)=O)cc1,inactive: 321%,–
O=C(C1=C[C@H](C2CCCCC2)C[C@H](OCc2ccc(CO)cc2)O1)N1CCOCC1,inactive: -15.1%,–
C[C@H](CO)N1C[C@H](C)[C@@H](CN(C)S(=O)(=O)c2ccc(-n3cccn3)cc2)OCc2cnnn2CCCC1=O,inactive: -24.4%,–
Cc1oc2c(cc(NS(=O)(=O)c3ccc(C(C)C)cc3)c3ccccc32)c1C(=O)O,–,inactive and active: 28.2 µM
CCCCn1c(SCc2ccc(C(=O)OC)o2)nc2cc(S(N)(=O)=O)ccc21,inactive: 49.6%,–
O=C(C[C@H]1C/C=C/CC[C@@H](Cc2ccc(F)cc2)C(=O)O[C@@H](c2ccccc2)CNC1=O)NCCO,inactive: 14.8%,–
O=C1C=C(N2CCOCC2)c2ccccc2C1=O,–,active: 3.16 µM
Cc1ccc2ncc(S(=O)(=O)c3ccccc3)c(N3CCCCC3C)c2c1 (configuration not stated),inactive: -18.4%,–
O=c1[nH]c2ccccc2nc1/C=C/c1ccc(F)cc1,inactive: 45.4%,–
COC(=O)CSc1nc2sc3c(c2c(=O)n1-c1ccc(C)cc1)CC(C(C)C)OC3 (configuration not stated),active: -81.6%,–
CN1/C(=C\C=C2\N=C(c3ccc(F)cc3)OC2=O)C(C)(C)c2ccccc21,–,active: 28.2 µM
CCOC(=O)[C@@H]1[C@H]2COc3ccccc3[C@@H]2N2C(=O)N(c3ccc(OC)cc3)C(=O)[C@@]12C,inactive: -12.1%,–
OCC[n+]1ccc(/C=C/c2c[nH]c3ccccc23)cc1,–,active: 28.2 µM
Cc1cc(C)c2oc(C(=O)Nc3ccc(S(=O)(=O)N4CCC(C)CC4)cc3)cc(=O)c2c1,inactive: -10.7%,–
CCCN(C)C[C@H]1Oc2ncc(Br)cc2C(=O)N([C@@H](C)CO)C[C@@H]1C,inactive: -18.5%,–
C=CC[C@@H](CC(=O)N[C@@H](CO)Cc1ccccc1)C(=O)N[C@H](COC(=O)[C@@H](CC=C)CC(=O)OC(C)(C)C)Cc1ccccc1,inactive: -17%,–
Cc1ccc(S(=O)(=O)NC2(C(F)(F)F)NC(=O)N(CCc3ccccc3)C2=O)cc1 (configuration not stated),inactive: -9.87%,–
O=C(Cc1ccccc1)NC1CC(=O)N(c2ccccc2)C1 (configuration not stated),inactive: 39.2%,–
C[C@H](CO)N1C[C@H](C)[C@@H](CN(C)Cc2ccc3c(c2)OCCO3)OCc2cnnn2CCCC1=O,inactive: -28%,–
Cc1ccc2c(c1)c(=O)c1c3n2CCN(C(=O)CCl)C3CC1 (configuration not stated),–,active: 31.6 µM
CC(=O)Nc1ccc(C2=NNC(=Nc3cccc(S(=O)(=O)N(C)C)c3)SC2)cc1,–,active: 10 µM
O=C1Nc2ccccc2/C1=C/c1cnc(-c2ccccc2)[nH]1,inactive: 149%,–
C[C@@H]1CN([C@@H](C)CO)C(=O)CCCn2nncc2CO[C@@H]1CN(C)S(=O)(=O)c1ccc(Oc2ccccc2)nc1,inactive: 3.26%,–
C[C@H]1CN([C@@H](C)CO)C(=O)CCCn2nncc2CO[C@@H]1CN(C)Cc1ccc(Oc2ccccc2)cc1,inactive: -19%,–
Cc1c(CCNC(=O)c2ccco2)sc2nc(-c3ccc(F)cc3)nn12,inactive: -2.72%,–
COc1ccccc1/C=C1\NC(=S)N(CC2CCCO2)C1=O (configuration not stated),inactive: 7.2%,–
